Experimental data taken from the supplement of paper PMC3334620.
Over roughly 33,000 sequences, “E-score (-0.5 to 0.5)” has its median near -0.043; the highest 2% begin near 0.37. The list shows a part of the results.

target: T1, Upc2 (UniProt Q12151); test: PBM E-score (8-mer binding enrichment) (E-score (-0.5 to 0.5)); higher = stronger / more preferred TF binding; most listed sequences are background and not binding sites; conditions: protein concentration: 200 nM; construct: GST-full length
T1 sequence: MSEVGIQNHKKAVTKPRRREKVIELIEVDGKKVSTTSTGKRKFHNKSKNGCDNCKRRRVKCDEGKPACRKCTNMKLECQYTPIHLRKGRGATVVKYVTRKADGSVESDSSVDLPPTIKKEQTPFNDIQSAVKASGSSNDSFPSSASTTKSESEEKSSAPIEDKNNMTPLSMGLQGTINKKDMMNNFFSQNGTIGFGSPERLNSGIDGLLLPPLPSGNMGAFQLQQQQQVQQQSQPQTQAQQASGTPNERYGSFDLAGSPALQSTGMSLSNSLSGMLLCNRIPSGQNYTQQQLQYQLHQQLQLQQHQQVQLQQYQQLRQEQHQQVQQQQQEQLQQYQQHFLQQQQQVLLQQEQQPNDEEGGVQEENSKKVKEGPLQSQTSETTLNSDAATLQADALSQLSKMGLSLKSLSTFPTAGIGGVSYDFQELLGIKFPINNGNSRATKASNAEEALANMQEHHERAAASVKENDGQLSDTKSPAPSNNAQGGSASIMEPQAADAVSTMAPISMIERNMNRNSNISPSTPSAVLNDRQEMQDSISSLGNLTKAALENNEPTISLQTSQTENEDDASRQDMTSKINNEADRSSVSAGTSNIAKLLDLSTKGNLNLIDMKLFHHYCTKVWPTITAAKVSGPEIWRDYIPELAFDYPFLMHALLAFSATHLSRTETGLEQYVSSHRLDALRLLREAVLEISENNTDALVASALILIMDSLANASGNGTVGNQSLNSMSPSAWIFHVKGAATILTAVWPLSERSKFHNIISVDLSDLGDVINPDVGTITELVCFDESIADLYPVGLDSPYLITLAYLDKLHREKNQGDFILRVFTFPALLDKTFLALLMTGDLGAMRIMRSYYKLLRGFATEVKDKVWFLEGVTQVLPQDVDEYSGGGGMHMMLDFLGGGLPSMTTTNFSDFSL
In short: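 Bound GST-tagged yeast transcription factors, applied at about 100-200 nM to double-stranded universal all-10-mer Agilent arrays, were detected with fluorescent anti-GST. Scans were normalised with masliner. A modified Wilcoxon-Mann-Whitney statistic, the E-score, was assigned to each ungapped eight-base word pooled with its reverse complement by the Universal PBM Analysis Suite.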

Sequence	PBM E-score
AATCGAGA	0.0715
AACCTGCT	-0.0408
CCGCGCTC	-0.00583
CATTTACG	0.345
GGTCTTTA	-0.0788
ATGCGAAC	0.266
TGAAGCAA	-0.295
CCTGACTA	-0.0277
ATAATCTC	-0.00921
ATGCCTAC	-0.234
GTTTGTCA	0.0304
AGAATTAG	-0.0263
ACAAGACA	0.0347
ACCGATAC	0.35
AGGGGCAG	-0.223
AAAAGCAA	0.046
ATCCCGAC	-0.0759
ATTGGTAG	-0.19
GCCGTAGA	0.189
GGTAAGTA	-0.00615
ATGCGTTA	0.201
CGTAGTAG	0.108
ATACGGAG	0.411
ATTTCGAG	0.0471
AATAGCAA	-0.0979

Sequence	PBM E-score
GAATCGCA	-0.0934
CGTAGCGC	0.256
GCTTCTTA	0.0291
CAGTTTAC	0.158
AGTTTAGC	0.00286
AATGCACG	0.00607
GACCTCGC	0.198
GAAGACAC	0.0892
CCGATGGA	0.109
CGTTTAAA	0.47
AAGTCACG	-0.12
ATAATCCC	-0.0168
CAAAATCC	-0.0221
ATAACCAA	-0.0125
AGCCACAA	-0.0358
CGAAGTTC	0.181
AACCCGTG	-0.071
AACTTGCC	-0.177
TCTAAGCA	-0.17
AATAGTGG	-0.132
AAAAATCT	0.181
GCAACCGA	0.0824
GGATGTGA	-0.198
CGGTCGGC	0.19
AGAGTTAA	-0.114

Sequence	PBM E-score
GAACCCGC	0.053
AACGAGGA	0.428
GGAATTCC	-0.332
AGAGTCGG	-0.0674
TCTACGCA	-0.0325
GAACTCGA	-0.164
CACCAATG	-0.0675
AGAAAAGA	-0.0124
CCCTCGTC	0.122
CGTCCTGA	-0.0997
CTCAAAAC	-0.0273
CGGGATGA	-0.11
CAGTTTAG	-0.0566
CAAACCTC	-0.242
GTGGCTGA	-0.244
GTAGGGAA	-0.00628
GTCTTACA	0.0332
ACAGCTTC	0.145
CAAAACCA	-0.103
GAATCTTA	-0.00215
ATAAGTGC	-0.0577
GATTCACA	-0.121
AAAACCTG	-0.00544
GTCTCAAA	-0.00729
CAATCTGC	-0.113

Sequence	PBM E-score
GATGAGTA	-0.0548
CAGCGTCC	-0.0441
CAAACACC	0.0462
ATTCCGGC	-0.189
AACGCTCA	0.181
CCACTTAG	-0.174
CCTGCCCC	-0.121
CTATTATC	0.131
CTCTAAGA	-0.104
GACTCAAA	0.125
AATCAGCA	-0.233
ACAACATA	0.0204
GACGACCA	0.071
AATTTGTA	0.0573
TAGCTCGA	-0.13
CCTTCTGC	-0.428
AATTCGCG	0.18
AGGATAAA	-0.0126
ACCAACGC	-0.14
AGGAAACA	-0.0301
CTGATGGC	-0.121
ATTGTTAG	-0.0129
GTATTCTA	0.106
GCCGGTAA	0.0358
CCGGCCTC	-0.136

Sequence	PBM E-score
CATCTCGA	-0.144
ATAGTTCC	-0.179
AACTAACT	-0.0449
GCAGAACC	-0.0127
CAAATTCG	0.0907
TCAAAAGA	-0.0424
ACCTGCGA	-0.0131
CTGCTCAC	0.00302
GAACTGTA	0.0776
CTGTCAAC	-0.0116
GGCATCAA	-0.121
CAAATAGG	-0.00549
CCATCACG	-0.0739
ACACGACC	0.154
GTAGTGCA	-0.0432
AGACTTGG	-0.0984
CAGTGATA	0.0531
AATTTAAG	0.0619
AATTCCAG	-0.188
CATCCTCA	-0.0817
CCATTGGG	-0.0393
GGCAGTAC	-0.0646
ATTTCAAG	-0.0738
AAGAGAGA	-0.115
GCCGGTAC	0.165

Sequence	PBM E-score
GTATACAA	0.234
GCGCATCC	0.0187
ACATGTCC	-0.0368
AAAAGCTT	-0.0712
CAGTACAA	-0.0317
GTACGGGA	0.389
AATCTCAC	-0.02
ACTGTTCT	-0.162
CATTAACC	0.0359
ATCAGTCG	0.0568
ATGAATTA	0.0203
CCTACGTC	-0.0661
AAAACCAA	0.0197
ATTCACTC	-0.145
CATTCCCG	0.0361
ATACTTGG	-0.221
GGGGAGTA	-0.293
AATGGGTG	-0.124
ATCTATGG	-0.173
GTGTCAAA	-0.105
AAAGGCCG	0.134
ACGAGACA	0.28
ATTGGCTC	-0.00635
CGAAGGTC	0.177
ATCGGGGG	-0.195

Sequence	PBM E-score
ACGCCCTC	0.0824
GAATACAA	-0.0496
AGCGAAAT	0.109
GCGAAAGA	0.0381
GACAAAAA	0.0813
CGTTGCGC	0.281
CTACTTTA	0.0282
CTCGTGTC	0.209
TGAGTCAA	-0.089
AGCCAGCA	-0.25
AACGGTAC	0.316
AATGATCA	-0.14
GCATTCGC	0.151
CATCTATA	0.0557
CCGCCCGG	-0.126
GAGCAGTA	0.053
GCCTCAGC	-0.214
AATTATGC	0.0912
CGTTAGTC	0.0726
ATCTCCCG	-0.163
ACTAGGAA	-0.242
CCGCCGAC	-0.176
